Assay results as given in the supplement of paper PMC4967469.
Lines with a small IC50 respond at low doses; where the fit passes the top or lowest dose, that dose stands as a limit. AUC sums up the same curve from the lowest dose to the 256-fold higher top dose; values near 1 show little effect. For part of these data: The top dose, if marked as inferred, was derived from the fitted curves, not read from the paper.

What was measured:
Assay in all cases: Viability of human cancer cell lines after 72 h of drug (GDSC screen)
[1] = compound: COc1cc2nccc(Oc3ccc(NC(=O)C4(C(=O)Nc5ccc(F)cc5)CC4)cc3)c2cc1OC [XL-184]; conditions: top dose 5.12 µM; top dose inferred
Description: (§1)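 Human cancer cell lines in 384-well plates, medium with 10% serum, drug for 72 h over a 256-fold dose range (nine 2-fold or five 4-fold steps up to the top dose). Adherent lines were fixed and stained with the nucleic acid dye Syto60, suspension lines read with resazurin; signal relative to control wells, capped at 0 and 100%. One two-parameter sigmoid per drug and line, fitted in a mixed model over all curves with the slope shared within a line.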

[2] = compound: O=c1cc(N2CCOCC2)oc2c(-c3cccc4c3sc3ccccc34)cccc12 [NU-7441]; conditions: top dose 2 µM; top dose inferred
Description: as §1

[3] = compound: O=c1cc(CN2CCOCC2)occ1OCCCCCSc1ccnc2cc(C(F)(F)F)ccc12 [EHT 1864]; conditions: top dose 10 µM; top dose inferred
Description: as §1

[4] = compound: C=CC(=O)Nc1cc(NC(=O)c2ccc(C)c(NC(=O)c3ccno3)c2)cc(C(F)(F)F)c1 [QL-XI-92]; conditions: top dose 10.24 µM; top dose inferred
Description: as §1

[5] = compound: CNCc1ccc(-c2[nH]c3cc(F)cc4c3c2CCNC4=O)cc1 [AG-014699]; conditions: top dose 5 µM; top dose inferred
Description: as §1

[6] = compound: COc1cc2ncnc(Nc3ccc(F)c(Cl)c3)c2cc1OCCCN1CCOCC1 [Gefitinib]; conditions: top dose 0.5 µM
Description: as §1

[7] = compound: CCC1=C[C@@H]2CN(C1)Cc1c([nH]c3ccccc13)[C@@](C(=O)OC)(c1cc3c(cc1OC)N(C)[C@H]1[C@@](O)(C(=O)OC)[C@H](OC(C)=O)[C@]4(CC)C=CCN5CC[C@]31[C@@H]54)C2 [Vinorelbine]; conditions: top dose 0.064 µM; top dose inferred
Description: as §1

[8] = compound: N=C(N)NC(=N)NCCc1ccccc1 [Phenformin]; conditions: top dose 4000 µM; top dose inferred
Description: as §1

[9] = compound: COc1cc2ncnc(Nc3cc(Br)c(O)c(Br)c3)c2cc1OC [WHI-P97]; conditions: top dose 10.24 µM; top dose inferred
Description: as §1

| Cell Line | AUC [1] | IC50 [1] [µM] | AUC [2] | IC50 [2] [µM] | AUC [3] | IC50 [3] [µM] | AUC [4] | IC50 [4] [µM] | AUC [5] | IC50 [5] [µM] | AUC [6] | IC50 [6] [µM] | AUC [7] | IC50 [7] [µM] | AUC [8] | IC50 [8] [µM] | AUC [9] | IC50 [9] [µM] |
| --- | --- | --- | --- | --- | --- | --- | --- | --- | --- | --- | --- | --- | --- | --- | --- | --- | --- | --- |
| MOG-G-UVW (glioma, adherent) | 0.859 | 4.06 | 0.94 | > 2 | 0.965 | > 10 | 0.922 | > 10.2 | 0.938 | > 5 | 0.977 | > 0.5 | 0.555 | 0.00563 | 0.773 | 1520 | 0.986 | > 10.2 |
| MOLT-4 (lymphoblastic leukaemia, suspension) | 0.904 | 4.58 | 0.962 | > 2 | 0.968 | > 10 | 0.943 | > 10.2 | 0.984 | > 5 | 0.968 | > 0.5 | 0.537 | 0.00493 | 0.61 | 471 | 0.972 | > 10.2 |
| MS751 (cervix, adherent) | 0.978 | > 5.12 | 0.973 | > 2 | 0.976 | > 10 | 0.985 | > 10.2 | 0.977 | > 5 | 0.947 | > 0.5 | 0.549 | 0.00539 | 0.706 | 904 | 0.989 | > 10.2 |
| NB12 (neuroblastoma, adherent) | 0.931 | > 5.12 | 0.976 | > 2 | 0.793 | 6.46 | 0.828 | 9.5 | 0.934 | > 5 | 0.955 | > 0.5 | 0.494 | 0.00383 | 0.966 | > 4000 | 0.963 | > 10.2 |
| NCI-H596 (lung adenocarcinoma, adherent) | 0.898 | > 5.12 | 0.941 | > 2 | 0.952 | > 10 | 0.982 | > 10.2 | 0.97 | > 5 | 0.978 | > 0.5 | 0.921 | > 0.064 | 0.968 | > 4000 | 0.974 | > 10.2 |
| NCI-H630 (large intestine, adherent) | 0.942 | > 5.12 | 0.958 | > 2 | 0.947 | > 10 | 0.988 | > 10.2 | 0.987 | > 5 | 0.972 | > 0.5 | 0.851 | 0.0544 | 0.485 | 227 | 0.974 | > 10.2 |
| NCI-H647 (non-small cell lung carcinoma, adherent) | 0.924 | > 5.12 | 0.982 | > 2 | 0.963 | > 10 | 0.762 | 3.83 | 0.926 | > 5 | 0.981 | > 0.5 | 0.699 | 0.015 | 0.746 | 1320 | 0.956 | > 10.2 |
| NCI-H650 (lung adenocarcinoma, adherent) | 0.969 | > 5.12 | 0.9 | > 2 | 0.981 | > 10 | 0.924 | > 10.2 | 0.98 | > 5 | 0.979 | > 0.5 | 0.794 | 0.0329 | 0.681 | 849 | 0.96 | > 10.2 |
| NCI-H841 (small cell lung carcinoma, adherent) | 0.934 | > 5.12 | 0.988 | > 2 | 0.89 | > 10 | 0.962 | > 10.2 | 0.988 | > 5 | 0.986 | > 0.5 | 0.646 | 0.0102 | 0.26 | 51.5 | 0.976 | > 10.2 |
| NCI-H1048 (small cell lung carcinoma, adherent) | 0.834 | 2.86 | 0.961 | > 2 | 0.894 | 9.91 | 0.985 | > 10.2 | 0.843 | 3.03 | 0.984 | > 0.5 | 0.647 | 0.00972 | 0.818 | 1980 | 0.932 | > 10.2 |
| NCI-H1435 (lung adenocarcinoma, semi-adherent) | 0.97 | > 5.12 | 0.942 | > 2 | 0.988 | > 10 | 0.993 | > 10.2 | 0.992 | > 5 | 0.983 | > 0.5 | 0.825 | 0.0329 | 0.801 | 1700 | 0.966 | > 10.2 |
| NCI-H1437 (lung adenocarcinoma, adherent) | 0.97 | > 5.12 | 0.944 | > 2 | 0.949 | > 10 | 0.932 | > 10.2 | 0.954 | > 5 | 0.974 | > 0.5 | 0.519 | 0.00452 | 0.685 | 841 | 0.974 | > 10.2 |
| NCI-H1563 (lung adenocarcinoma, adherent) | 0.965 | > 5.12 | 0.952 | > 2 | 0.949 | > 10 | 0.839 | 9.02 | 0.985 | > 5 | 0.979 | > 0.5 | 0.686 | 0.0148 | 0.681 | 885 | 0.917 | > 10.2 |
| NCI-H1568 (lung adenocarcinoma, adherent) | 0.982 | > 5.12 | 0.968 | > 2 | 0.906 | > 10 | 0.958 | > 10.2 | 0.961 | > 5 | 0.956 | > 0.5 | 0.596 | 0.00785 | 0.966 | > 4000 | 0.922 | > 10.2 |
| NCI-H1623 (lung adenocarcinoma, adherent) | 0.97 | > 5.12 | 0.965 | > 2 | 0.918 | > 10 | 0.985 | > 10.2 | 0.963 | > 5 | 0.828 | 0.407 | 0.787 | 0.0348 | 0.846 | 3930 | 0.912 | > 10.2 |
| NCI-H1651 (lung adenocarcinoma, adherent) | 0.981 | > 5.12 | 0.982 | > 2 | 0.859 | 9.34 | 0.987 | > 10.2 | 0.778 | 2.19 | 0.984 | > 0.5 | 0.87 | > 0.064 | 0.712 | 1050 | 0.986 | > 10.2 |
| NCI-H1688 (small cell lung carcinoma, adherent) | 0.902 | > 5.12 | 0.964 | > 2 | 0.921 | > 10 | 0.967 | > 10.2 | 0.976 | > 5 | 0.986 | > 0.5 | 0.688 | 0.0142 | 0.677 | 824 | 0.917 | > 10.2 |
| NCI-H1693 (lung adenocarcinoma, adherent) | 0.924 | > 5.12 | 0.957 | > 2 | 0.938 | > 10 | 0.964 | > 10.2 | 0.892 | > 5 | 0.904 | > 0.5 | 0.976 | > 0.064 | 0.829 | > 4000 | 0.861 | > 10.2 |
| NCI-H1755 (lung adenocarcinoma, adherent) | 0.539 | 0.417 | 0.93 | > 2 | 0.954 | > 10 | 0.771 | 4.56 | 0.923 | > 5 | 0.972 | > 0.5 | 0.712 | 0.0177 | 0.468 | 201 | 0.738 | 3.47 |
| NCI-H1781 (lung adenocarcinoma, adherent) | 0.926 | > 5.12 | 0.989 | > 2 | 0.948 | > 10 | 0.883 | > 10.2 | 0.989 | > 5 | 0.972 | > 0.5 | 0.665 | 0.0115 | 0.989 | > 4000 | 0.989 | > 10.2 |
| NCI-H1792 (lung adenocarcinoma, adherent) | 0.959 | > 5.12 | 0.982 | > 2 | 0.989 | > 10 | 0.984 | > 10.2 | 0.952 | > 5 | 0.969 | > 0.5 | 0.814 | 0.0307 | 0.689 | 798 | 0.984 | > 10.2 |
| NCI-H1944 (lung adenocarcinoma, adherent) | 0.952 | > 5.12 | 0.972 | > 2 | 0.931 | > 10 | 0.91 | > 10.2 | 0.985 | > 5 | 0.955 | > 0.5 | 0.542 | 0.00523 | 0.477 | 216 | 0.946 | > 10.2 |
| NCI-H2009 (lung adenocarcinoma, adherent) | 0.957 | > 5.12 | 0.976 | > 2 | 0.969 | > 10 | 0.983 | > 10.2 | 0.987 | > 5 | 0.977 | > 0.5 | 0.645 | 0.0103 | 0.669 | 761 | 0.977 | > 10.2 |
| NCI-H2023 (lung adenocarcinoma, adherent) | 0.967 | > 5.12 | 0.952 | > 2 | 0.975 | > 10 | 0.976 | > 10.2 | 0.982 | > 5 | 0.947 | > 0.5 | 0.879 | > 0.064 | 0.906 | > 4000 | 0.975 | > 10.2 |
| NCI-H2052 (mesothelioma, adherent) | 0.973 | > 5.12 | 0.977 | > 2 | 0.841 | > 10 | 0.965 | > 10.2 | 0.961 | > 5 | 0.98 | > 0.5 | 0.85 | > 0.064 | 0.962 | > 4000 | 0.968 | > 10.2 |
| NCI-H2087 (lung adenocarcinoma, semi-adherent) | 0.935 | > 5.12 | 0.974 | > 2 | 0.953 | > 10 | 0.922 | > 10.2 | 0.967 | > 5 | 0.986 | > 0.5 | 0.645 | 0.0104 | 0.537 | 317 | 0.983 | > 10.2 |
| NCI-H2172 (non-small cell lung carcinoma, adherent) | 0.951 | > 5.12 | 0.958 | > 2 | 0.868 | > 10 | 0.975 | > 10.2 | 0.983 | > 5 | 0.974 | > 0.5 | 0.932 | > 0.064 | 0.809 | 3080 | 0.97 | > 10.2 |
| NCI-H2227 (small cell lung carcinoma, semi-adherent) | 0.887 | > 5.12 | 0.955 | > 2 | 0.986 | > 10 | 0.914 | > 10.2 | 0.937 | > 5 | 0.986 | > 0.5 | 0.968 | > 0.064 | 0.98 | > 4000 | 0.978 | > 10.2 |
